In the supplement of paper PMC4967469:
By IC50 is meant the dose at which the fit gives 50% viability; where the fit passes the top or lowest dose, that dose stands as a limit. AUC is the area under the same curve over the 256-fold range up to the top dose, as a fraction; the more sensitive the line, the further below 1. For some of these results: An inferred top dose comes from the curve model; the source does not state it.

Experiments:
Test in all cases: Viability of human cancer cell lines after 72 h of drug (GDSC screen)
TGX221 = compound: Cc1cc(C(C)Nc2ccccc2)c2nc(N3CCOCC3)cc(=O)n2c1 [TGX221]; conditions: top dose 10 µM
Description: (§1)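 Human cancer cell lines in 384-well plates, medium with 10% serum, drug for 72 h over a 256-fold dose range (nine 2-fold or five 4-fold steps up to the top dose). Adherent lines were fixed and stained with the nucleic acid dye Syto60, suspension lines read with resazurin; signal relative to control wells, capped at 0 and 100%. One two-parameter sigmoid per drug and line, fitted in a mixed model over all curves with the slope shared within a line.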

SB590885 = compound: CN(C)CCOc1ccc(-c2nc(-c3ccncc3)c(-c3ccc4c(c3)CC/C4=N\O)[nH]2)cc1 [SB590885]; conditions: top dose 5 µM; top dose inferred
Description: as §1

Lapatinib = compound: CS(=O)(=O)CCNCc1ccc(-c2ccc3ncnc(Nc4ccc(OCc5cccc(F)c5)c(Cl)c4)c3c2)o1 [Lapatinib]; conditions: top dose 2 µM
Description: as §1

PD-173074 = compound: CCN(CC)CCCCNc1ncc2cc(-c3cc(OC)cc(OC)c3)c(NC(=O)NC(C)(C)C)nc2n1 [PD-173074]; conditions: top dose 2 µM; top dose inferred
Description: as §1

Cell Line	AUC (TGX221)	IC50 (TGX221)	AUC (SB590885)	IC50 (SB590885)	AUC (Lapatinib)	IC50 (Lapatinib)	AUC (PD-173074)	IC50 (PD-173074)
ES7 (Ewing sarcoma, adherent)	0.853	8.14 µM	0.97	> 5 µM	0.941	> 2 µM	0.984	> 2 µM
ES8 (Ewing sarcoma, adherent)	0.976	> 10 µM	0.952	> 5 µM	0.972	> 2 µM	0.973	> 2 µM
ES-2 (ovary, adherent)	0.991	> 10 µM	0.892	4.65 µM	0.991	> 2 µM	0.99	> 2 µM
ETK-1 (biliary tract, adherent)	0.955	> 10 µM	0.975	> 5 µM	0.905	> 2 µM	0.98	> 2 µM
EW-1 (Ewing sarcoma, semi-adherent)	0.91	> 10 µM	0.989	> 5 µM	0.975	> 2 µM	0.978	> 2 µM
EW-3 (Ewing sarcoma, adherent)	0.982	> 10 µM	0.979	> 5 µM	0.984	> 2 µM	0.983	> 2 µM
EW-11 (Ewing sarcoma, adherent)	0.978	> 10 µM	0.981	> 5 µM	0.97	> 2 µM	0.98	> 2 µM
EW-13 (Ewing sarcoma, suspension)	0.986	> 10 µM	0.984	> 5 µM	0.984	> 2 µM	0.975	> 2 µM
EW-16 (Ewing sarcoma, adherent)	0.98	> 10 µM	0.931	> 5 µM	0.938	> 2 µM	0.936	> 2 µM
EW-18 (Ewing sarcoma, suspension)	0.977	> 10 µM	0.977	> 5 µM	0.984	> 2 µM	0.967	> 2 µM
EW-24 (Ewing sarcoma, semi-adherent)	0.993	> 10 µM	0.993	> 5 µM	0.909	> 2 µM	0.992	> 2 µM
EoL-1-cell (haematopoietic neoplasm, suspension)	0.944	> 10 µM	0.924	> 5 µM	0.987	> 2 µM	0.897	1.98 µM
Farage (B-cell lymphoma, suspension)	0.97	> 10 µM	0.98	> 5 µM	0.993	> 2 µM	0.966	> 2 µM
GA-10 (Burkitt lymphoma, suspension)	0.786	3.61 µM	0.988	> 5 µM	0.99	> 2 µM	0.971	> 2 µM
GB-1 (glioma, adherent)	0.898	> 10 µM	0.946	> 5 µM	0.981	> 2 µM	0.979	> 2 µM
GCIY (stomach, adherent)	0.873	> 10 µM	0.984	> 5 µM	0.921	> 2 µM	0.984	> 2 µM
GDM-1 (acute myeloid leukaemia, suspension)	0.894	> 10 µM	0.987	> 5 µM	0.984	> 2 µM	0.987	> 2 µM
GI-1 (glioma, adherent)	0.959	> 10 µM	0.987	> 5 µM	0.93	> 2 µM	0.975	> 2 µM
GI-ME-N (neuroblastoma, adherent)	0.811	7.87 µM	0.961	> 5 µM	0.937	> 2 µM	0.869	> 2 µM
GOTO (neuroblastoma, adherent)	0.976	> 10 µM	0.93	> 5 µM	0.983	> 2 µM	0.907	> 2 µM
GR-ST (lymphoblastic leukaemia, suspension)	0.943	> 10 µM	0.944	> 5 µM	0.976	> 2 µM	0.893	> 2 µM
GRANTA-519 (B-cell lymphoma, suspension)	0.985	> 10 µM	0.991	> 5 µM	0.99	> 2 µM	0.991	> 2 µM
GT3TKB (stomach, adherent)	0.987	> 10 µM	0.989	> 5 µM	0.952	> 2 µM	0.963	> 2 µM
H9 (lymphoid neoplasm, suspension)	0.975	> 10 µM	0.992	> 5 µM	0.986	> 2 µM	0.991	> 2 µM
H-EMC-SS (chondrosarcoma, adherent)	0.97	> 10 µM	0.538	0.409 µM	0.979	> 2 µM	0.574	0.211 µM
HA7-RCC (kidney, adherent)	0.927	> 10 µM	0.96	> 5 µM	0.978	> 2 µM	0.982	> 2 µM
HAL-01 (lymphoblastic leukaemia, suspension)	0.812	4.58 µM	0.986	> 5 µM	0.989	> 2 µM	0.938	> 2 µM
HC-1 (hairy cell leukaemia, suspension)	0.9	> 10 µM	0.987	> 5 µM	0.968	> 2 µM	0.982	> 2 µM
HCC2157 (breast, suspension)	0.928	> 10 µM	0.987	> 5 µM	0.93	> 2 µM	0.958	> 2 µM
